Data taken from PMC4336329 (PLoS ONE, 2015).
The campaign covered roughly 310,000 compounds. About 14,000 (4.5%) showed an effect of 50% or more. Effects have a minus sign here. Some of the results follow. Where a SMILES comes first, the peptide text is derived from it. [ ]: non-standard residue; d: D form. The star is where a group is joined. Hyp = O=C(O)[CH]1C[CH](O)CN1; Cbz = O=C(OCc1ccccc1)*; OBn = c1ccc(CO*)cc1

target: human ether-à-go-go-related gene (hERG) potassium channel (human, UniProt Q12809); test: primary screen, population patch clamp on CHO cells stably expressing hERG
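Further: peak tail current of the secondary pulse compared with the same well before compound.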

Sequence of human ether-à-go-go-related gene (hERG) potassium channel (Q12809 whole entry, looked up): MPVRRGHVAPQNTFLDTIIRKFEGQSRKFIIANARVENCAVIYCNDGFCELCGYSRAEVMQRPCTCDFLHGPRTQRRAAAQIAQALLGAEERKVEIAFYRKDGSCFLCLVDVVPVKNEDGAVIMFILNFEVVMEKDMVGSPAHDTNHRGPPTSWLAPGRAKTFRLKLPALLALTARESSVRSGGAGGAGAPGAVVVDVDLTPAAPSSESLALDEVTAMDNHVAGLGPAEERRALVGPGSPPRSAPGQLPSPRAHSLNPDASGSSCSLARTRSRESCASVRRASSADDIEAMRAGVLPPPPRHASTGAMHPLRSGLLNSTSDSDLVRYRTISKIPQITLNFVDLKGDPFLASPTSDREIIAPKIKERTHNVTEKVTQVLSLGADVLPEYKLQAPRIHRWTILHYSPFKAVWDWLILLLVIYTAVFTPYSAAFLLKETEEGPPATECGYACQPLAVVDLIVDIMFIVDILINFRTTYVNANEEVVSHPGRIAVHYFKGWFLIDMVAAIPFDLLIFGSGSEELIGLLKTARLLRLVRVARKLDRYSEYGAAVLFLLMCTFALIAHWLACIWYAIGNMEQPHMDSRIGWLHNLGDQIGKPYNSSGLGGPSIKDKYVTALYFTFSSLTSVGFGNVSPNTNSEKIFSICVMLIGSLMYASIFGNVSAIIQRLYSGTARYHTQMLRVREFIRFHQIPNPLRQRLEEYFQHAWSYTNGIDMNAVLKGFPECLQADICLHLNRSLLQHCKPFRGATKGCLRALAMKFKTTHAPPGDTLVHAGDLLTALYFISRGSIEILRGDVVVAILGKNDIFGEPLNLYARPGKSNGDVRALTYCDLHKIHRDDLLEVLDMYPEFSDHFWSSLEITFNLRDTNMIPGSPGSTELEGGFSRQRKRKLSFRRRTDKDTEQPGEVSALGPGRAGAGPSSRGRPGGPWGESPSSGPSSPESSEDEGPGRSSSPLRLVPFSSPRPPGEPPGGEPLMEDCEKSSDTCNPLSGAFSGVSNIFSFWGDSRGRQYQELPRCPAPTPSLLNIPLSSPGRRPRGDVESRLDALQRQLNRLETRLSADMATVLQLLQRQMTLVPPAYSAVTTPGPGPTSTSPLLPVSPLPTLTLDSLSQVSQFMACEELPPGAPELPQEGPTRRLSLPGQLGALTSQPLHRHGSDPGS

Compound	hERG current change (%, negative = inhibition) at 10uM [%]
Cc1cc(CCCCCCCCc2cc(C)cc(=O)o2)oc(=O)c1	-2.63
Clc1ccccc1-c1ccc2ncnc(NCc3ccc4c(c3)OCO4)c2c1	7.32
COc1ccc(CN(C(=O)Cn2nnc3ccccc32)C(C(=O)NC(C)(C)C)c2ccco2)cc1 (stereo not drawn)	-1.16
CC(NC(=O)CNC(=O)OCc1ccccc1)C(=O)N1CC(O)CC1C(=O)OCc1ccccc1 (stereo not drawn) (Cbz-Gly-Ala-[Hyp]-OBn; configuration not given here)	-0.0848
Cc1cc(C)n2c3c(c(C#N)c2n1)CC(C)(C)OC3	2.81
Cc1ccccc1C(=O)c1c[nH]c(C(N)=O)c1	13.4
COc1cc(C(=O)OCC(=O)Nc2ccc(C)cc2)cc(OC)c1OC	28.7
O=C(c1cc(Cl)cc(Cl)c1)N1CCC(=O)N(C(COCc2ccccc2)Cc2ccccc2)CC1 (stereo not drawn)	-10
CCOc1ccc(OCC)c(NC(=O)CCn2cccc2)c1	-0.568
COc1ccc(/C=C/C(=O)Nc2ccccc2C(=O)O)cc1	7.91
COc1ccc(NC(=O)CN(C)CCOc2ccc(Cl)cc2)cc1OC.O=C(O)C(=O)O	-17.4
CC(C)(C)c1cc([N+](=O)[O-])cc(C(C)(C)C)c1O	4.16
N#Cc1c2c(c(Nc3ccccc3)n3c1nc1ccccc13)CCC2	19.5
Clc1ccc(-c2noc(CN(Cc3ccccn3)CC3CCCO3)n2)cc1 (stereo not drawn)	-28.5
O=C(Nn1c(-c2ccncc2)nc2ccccc2c1=O)c1ccc(Br)cc1	-28.9
CCOC(=O)C1=C(COC(=O)C2CC(=O)N(c3ccc(CC)cc3)C2)NC(=O)NC1C (stereo not drawn)	-21.9
c1ccc(-n2ncc3c(N4CCN(c5ccccn5)CC4)nc(N4CCCCCC4)nc32)cc1	14.1
CC(=O)c1ccc(NC(=O)COC(=O)C2C3CC4OC(=O)C2C4C3)cc1 (stereo not drawn)	11.7
COc1ccc(CCN=C(NS(=O)(=O)c2ccccc2)c2ccccc2)cc1OC	14.8
O=C(CCc1nc(-c2cccs2)no1)NCc1ccc(F)cc1Cl	-22.3
O=C(CSc1ncnc2nc[nH]c12)Nc1ccccc1C(F)(F)F	7.74
CC(C)c1ccccc1NS(=O)(=O)c1cccs1	17.8

Compound	hERG current change (%, negative = inhibition) at 10uM [%]
N#Cc1ccccc1NC(=O)CN1C(=O)NC(Cc2c[nH]c3ccccc23)C1=O (stereo not drawn)	0.694
O=C(Nc1cccs1)Nc1c(F)c(F)c(F)c(F)c1F	-36.1
O=C(N/N=C/c1ccc(N2CCCCC2)o1)c1ccccc1	1.25
CC(=O)Nc1ccc(NCc2cccs2)cc1	6.07
CCOC(=O)CC(NC(=O)CCc1c(C)nc2ncnn2c1C)c1ccc(C)cc1 (stereo not drawn)	-17.1
Cc1cccc(CCN(CC(=O)NC2CCCCC2)C(=O)c2csnn2)c1	-2.04
Cn1c(=O)[nH]c(=O)c2c1nc(N1CCc3ccccc3C1)n2CCSc1nc2ccccc2s1	11.1
CC(C)=CCN1CCN(Cc2cn(C(C)C)c3ccccc23)CC1CCO (stereo not drawn)	-10.5
O=C(OCC(=O)c1c[nH]c2ccccc12)c1ccc([N+](=O)[O-])s1	6.82
Cc1ccc2nc(N3CCN(CCO)CC3)nc(-c3ccccc3)c2c1	-54.4
CCN(CC)CCN(Cc1cc2cc3c(cc2[nH]c1=O)OCO3)C(=S)NCCCOC	-6.7
COc1cccc(-c2nc(CS(=O)CC(=O)O)c(C)o2)c1 (stereo not drawn)	-10.4
CC(=O)N/N=C/c1cc([N+](=O)[O-])ccc1OCCOc1ccccc1	0.245
CCN1CCN(Cc2c(OC)ccc3ccccc23)CC1	0.992
CCC(C)(C)NC(=O)c1sccc1Oc1ccc(F)cc1[N+](=O)[O-]	1.02
COc1ccc(C(CNC(=O)c2cccn2C)N2CCOCC2)cc1 (stereo not drawn)	3.91
CCOC(=O)c1cnc2ccccc2c1NCCc1ccc(OC)c(OC)c1	-78.2
O=C(CSc1ccc(F)cc1)Nc1ccc(C2SCCS2)cc1	-4.16
Cc1nnc(C)n1/N=C/c1ccc(C(=O)O)cc1	9.36
CC(C)c1cc(N2CCOCC2)n2ncc(-c3ccccc3)c2n1	-16.1
O=C(NCc1ccc(C(F)(F)F)cc1)C1CC(c2ccccc2C(F)(F)F)=NO1 (stereo not drawn)	-13.5
CCOc1ccc(N(C)S(=O)(=O)c2cnc[nH]2)cc1	4.69

Compound	hERG current change (%, negative = inhibition) at 10uM [%]
Cc1ccc(C(=O)Nc2cccc(C(F)(F)F)c2)cc1NC(=O)c1nccn1C	1.96
Cc1noc(C)c1C(=O)NC1=NCCS1	-2.48
O=C(CN1CCNCC1)Nc1ccc(Oc2ccccc2)cc1	-17.9
COCCn1c(C(=O)N2CCCC2)cc2c1C[C@H]1CN(C(=O)c3ccccc3)[C@@](Cc3ccc(F)cc3)(C(=O)OC)[C@@H]21	-39.3
CCOC(=O)c1c(C)[nH]c(C(=O)COC(=O)CNC(=O)c2ccc(Cl)cc2Cl)c1C	19.8
N#Cc1cn(Cc2ccccc2)c2ccccc12	5.51
CCOc1ccc(-c2nnc(-c3ccncc3)o2)cc1OCC	-3.15
CCS(=O)(=O)NCc1cn2ccsc2n1	2.7
CC(NC(=O)CN(C)Cc1cccc(F)c1)c1ccccc1 (stereo not drawn)	7.3
CCOCCCn1c(SCC(=O)Nc2ccc(OC)cc2)nc2ccccc2c1=O	-11
CC(C)=CCN1CCN(Cc2ccc(Sc3nncn3C)o2)CC1CCO (stereo not drawn)	29.1
CCn1c(=O)n(CC(=O)N2CCC3(CC2)OCCO3)c(=O)c2ccccc21	2.49
CCOC(=O)c1cc(NC(=O)Nc2ccc(OC)c(OC)c2)c(C)nc1C	20.2
COC(=O)CNC(=O)C1CCN(c2nc(C)cc(C)n2)CC1	11.3
Cc1ccc(C(=O)NCC(=O)N2CCC3(CC2)NCCc2[nH]cnc23)cc1C	14.7
COc1ccc(C(c2nnnn2Cc2ccccc2)N2CCN(c3ccccc3)CC2)cc1.Cl (stereo not drawn)	-6.94
CC(NC(=O)c1cccc(C(F)(F)F)c1)C(c1ccccc1)N1CCOCC1 (stereo not drawn)	-4.35
CN(C)c1ccc(/C=C2\N=C(c3ccc(Cl)c([N+](=O)[O-])c3)NC2=O)cc1	15.1
CCCCNC(=O)N1c2ccccc2CC1C (stereo not drawn)	5.16
CCOC(=O)c1ccc(NS(=O)(=O)c2ccc(SC)cc2)cc1	0.723
O=C(Nc1ccccc1Cl)C(=O)c1cn(CC(=O)N2CCOCC2)c2ccccc12	5.59
O=C(COc1ccc(Cl)cc1Cl)NN1C(=O)C2C3C=CC([C@@H]2C1=O)C31CC1 (stereo partly drawn)	7.44

Compound	hERG current change (%, negative = inhibition) at 10uM [%]
CCOC(=O)C1(Cc2ccccc2C(F)(F)F)CCN(C2CCN(C(C)=O)CC2)CC1	-18.6
Cc1ccc(CNC(=O)COC(=O)c2nc(-c3ccccc3)oc2C)cc1	-10.2
CCOCc1cc(C2NC(=O)NC(C)=C2C(=O)OCC)ccc1OC (stereo not drawn)	-1.75
O=C(O)c1ccccc1C(=O)OCCCCOC(=O)c1ccccc1C(=O)O	0.16
CC(=O)N1c2ccccc2C2CCCC[C@H]21 (stereo partly drawn)	6.04
CC(=O)Nc1sc(NC(=O)c2ccccc2)nc1-c1cccs1	0.00438
COC(=O)c1cc(OC)c(OC)cc1NC(=O)c1ccc(OC)cc1	-4.87
CC(C)N(C(=O)CSc1n[nH]c(=O)n1CCc1ccccc1)C(C)C	10.8
CC(=O)Nc1nnc(SCC(=O)NC(C)(C)C)s1	0.0786
COc1ccc(-c2nc3ccncc3[nH]2)cc1OC.Cl	14.9
COc1ccc(OC)c(C(C)NC(=O)C23CC4CC(CC(C4)C2)C3)c1 (stereo not drawn)	1.42
Cc1cc(C)nc(CCNC(=O)c2cc(COc3c(F)cccc3F)on2)n1	4.72
CCOC(=O)N1CCC(N(CCN(C)C)C(=S)Nc2cccc(C)c2)CC1	4.81
O=C(Oc1ccc(OC(=O)N2CCCCC2)cc1)N1CCCCC1	17.4
C=CCOc1ccc(/C=C/C(=O)OCC(=O)NC2CCCCCC2)cc1	3.69
CCCCCCCNC(=O)c1cc(-c2ccncc2)nc2ccccc12	7.84
CCc1n[nH]c(=S)n1/N=C/c1ccccc1OCc1ccc(Cl)cc1	21.5
O=C(CSc1cccc2cccc(Cl)c12)NCc1cccs1	3.59
Cc1cccc(C)c1NC(=S)N(CCCN1CCOCC1)Cc1cccnc1	-3.7
CCOc1ccc(S(=O)(=O)N2CCOCC2)cc1NC(=O)C1CSC2(C)CCC(=O)N12 (stereo not drawn)	-13.2
Cc1cnc(C(=O)OCC(=O)c2c(N)n(CC(C)C)c(=O)n(C)c2=O)cn1	-8.35
